This passage reports self-cleavage results from the RNAGym collection of RNA variant scans (doi:10.7554/elife.90254).

Read counts are not given, so values of variants with three or more changes are uncertain.

Sequences and labels used below:
B1: LINE1-mini (parent)
chain: GGCAGAGCUCAACACAGCGUGGCAAAGUGGCUGUGGCUAGACUGCC

The variants in the series derive from B1. Briefly: self-cleavage, relative activity (ratio to wild type); higher = more cleavage; in vitro, sequencing; the parent is a self-cleaving ribozyme.
On to A12C G21A G29U, for which the self-cleavage stood at 0.02. In the case of A12C G27C A41U C42A it was 0.02; in that of A11U G36U G40C G44U, 0.01; in that of A11U A26C A39G, 0.03. With A12C C13A G30U U32C the figure was 0.05. With A11U U20G G21C G29A A41C, the self-cleavage was 0.

Turning to A11U U28A G35A, the self-cleavage was 0.01.

A12C G22A G30U: the self-cleavage was determined as 0.01.

As for A11U U20C G29U G36A U38C C45U, the self-cleavage is 0.01.

With A11U G30C U32C, the self-cleavage is 0.05. In the case of A12C C31A U38G it was 0.01; in that of A11U C15G C42U, 0.

A12C G17A G36A C42A G44A: the self-cleavage was determined as 0.02. As to A12C G29U A39G, the self-cleavage was determined as 0.

Turning to A11U G21U G44U C46A, the self-cleavage stood at 0. In the case of A11U G21U A24C G27U it was 0.07; in that of A12C G29C C46G, 0.02; in that of A12C C13A G36U, 0.02. In the case of A11U C37A C42A C46A it was 0.01; in that of A11U C23A U34G, 0.02. With A11U U34A G36A U43C the figure was 0. For A12C G19C U32A, the self-cleavage is 0.03. For A11U G17U A26U A39C G40C, the self-cleavage came out at 0.01. With A11U C13U U20A the figure was 0.01; with A11U G27C G29U G35C, 0.04; with A12C A25G G29A C31U, 0.03. With A11U G40U C42A G44C the figure was 0.03; with A11U G17A C23U G40U, 0.01; with A11U C18A U34G, 0.02.

Regarding A12C C23U G35C C37G G40A C46U, the self-cleavage was determined as 0. On to A11U U20G A41C C42G, for which the self-cleavage was determined as 0. With A11U G22A A24C U34C the figure was 0.03; with A11U G35C A39C, 0.03.

On to A11U C18U A25G C37G, for which the self-cleavage was found to be 0. In the case of A12C C15A G19U G40A it was 0.01. As for A12C G27C G33U A41G, the self-cleavage came to 0. With A12C G29C G35C U38G C42U the figure was 0.02. In the case of A11U C15A G36C A39C it was 0.02.

On to A11U C23U A24C G29U U32A, for which the self-cleavage was found to be 0.04. In the case of A11U U38C G40A C42G it was 0.01; in that of A12C A14G C18A C31G C42A, 0.02. In the case of A11U G17A G22U C23U A39G A41C, the self-cleavage amounted to 0.01. Take A12C A24G G35U G40C: the self-cleavage was found to be 0.01.

Regarding A11U G29U C45A, the self-cleavage was found to be 0.03. Regarding A11U A16G U20G C23A, the self-cleavage amounted to 0.01. In the case of A11U U34C C37G C46U it was 0.01; in that of A12C G17C G19A, 0.01.

For A11U G35U U38C C46A, the self-cleavage was determined as 0.06. With A12C C15G G19A C46A the figure was 0.

With A12C C15U A16G C45G C46G, the self-cleavage amounted to 0.02. With A12C A26C U34C the figure was 0.02; with A12C C23A G36C, 0.04.

Consider A12C C23A G36U, for which the self-cleavage came to 0.13. In the case of A12C C18G U20G G22C A26G U28A it was 0; in that of A11U G21A A24U U32G, 0.04; in that of A12C C31A G44C, 0.06. In the case of A11U C15A G19U U20C G27U C37A it was 0.01; in that of A12C A14C A25U G27A G29C U32C G35U, 0.02. For A11U G17A G35A A41C C42A U43G, the self-cleavage was 0.02. As for A12C G17U G19U G29A, the self-cleavage came out at 0.03. With A11U C13A A14G C37A the figure was 0.01; with A11U G22A A24U, 0.15; with A12C G27U C46A, 0.03. As to A11U C18U U20C, the self-cleavage was determined as 0.21. With A11U C31U C37U C42U the figure was 0.01; with A11U C15G C23U C46G, 0.01. With A11U C13U G30A G33U G40A the figure was 0.

For A12C A14C A25G C31U, the self-cleavage was found to be 0. In the case of A11U G17A C23U C45U it was 0.05; in that of A12C C13A A14G, 0; in that of A11U G27A C31G, 0.03. With A12C G27C A39C the figure was 0.01; with A11U G30C A41C, 0.01; with A11U C37U A39C, 0. As to A12C G29U C37U, the self-cleavage is 0.01.

In the case of A11U G22C G33C, the self-cleavage turned out to be 0.02. In the case of A11U C15U A16U G44A it was 0.02; in that of A11U G35A G40A, 0.03. In the case of A12C G22A U38G, the self-cleavage amounted to 0.01. As to A12C C13A A16U U34C, the self-cleavage was found to be 0.11. A12C C18G G27U G35A: the self-cleavage stood at 0.01.

On to A11U C18U A24C G44A, for which the self-cleavage was found to be 0.02. With A11U C18U G22A the figure was 0.26. In the case of A12C A25C G30C it was 0.01; in that of A11U A25G A39C, 0; in that of A11U A16G G30U A39G, 0.01. With A11U G22A A25C A26G C46A the figure was 0.06; with A12C A14G C15G C31A, 0.04; with A12C G21U A39U, 0.02. As for A12C C13U C15A C37G C45U, the self-cleavage came to 0. On to A11U G17C G22A, for which the self-cleavage turned out to be 0.03.

Regarding A11U C13A C15G A24U A25U G36U A39U, the self-cleavage worked out at 0.02. Take A12C C13U A26G U34C A41U G44C: the self-cleavage turned out to be 0.02.

For A11U G19U G33C, the self-cleavage came to 0.02.

Consider A11U A16U C42A G44U, for which the self-cleavage was found to be 0.04. With A12C A14U C23G U28G G29U the figure was 0.03; with A11U U20G A24C, 0.02. Consider A11U G19A U32G, for which the self-cleavage was determined as 0.04.

In the case of A11U G29A G35A, the self-cleavage stood at 1.47. In the case of A12C C18G G22A C31A G36C it was 0.01. In the case of A11U G35U C37U it was 0.05; in that of A11U C31G G35U, 0.02.

On to A12C C13A G19A U34A G35U, for which the self-cleavage amounted to 0.03. In the case of A11U U32A G36U it was 0.13. With A12C A14C C18U G19C the figure was 0.01. In the case of A11U C23G U38C it was 0.19; in that of A12C A16U U20A C46A, 0.01; in that of A11U G21A G30A G44U, 0.05.

A11U G21U A39G C45G: the self-cleavage is 0.01. With A12C C15A C18U A39C C46A the figure was 0.02; with A12C G29U G33C G44C, 0.

For A11U C13G G19U G27A C37U, the self-cleavage is 0.02. A11U G29A C31U U38A: the self-cleavage came to 0.07. Regarding A11U G22C G40C, the self-cleavage stood at 0.01. With A11U A24G C31G the figure was 0.01; with A12C C23A A25U G27U G29U C37G, 0.

A11U C37U U43A: the self-cleavage was 0.01. With A11U G19C G30C the figure was 0.07. In the case of A12C A39C A41C it was 0. With A11U G21U C31A G44U, the self-cleavage was 0.01. Take A11U G22A G27C C37U U38G: the self-cleavage worked out at 0. In the case of A11U G27C G30A U38A it was 0.03; in that of A12C G30U C37A, 0.01; in that of A11U G19A G27U G35C, 0.01. With A12C G17A C23G U38C the figure was 0.01. As for A12C C18A A24C G35A, the self-cleavage was 0.02. In the case of A12C A14C G19U it was 0.05.

As for A12C G30A C37G, the self-cleavage came out at 0.01.

A12C A16G C23G A24U: the self-cleavage amounted to 0.02.

Take A12C A14U A25U: the self-cleavage came to 0. In the case of A11U A25C G36C it was 0.02; in that of A11U C15A A41G G44C, 0.01. With A12C C23U C37A the figure was 0.02; with A11U G21A G22U U32A, 0.01. In the case of A11U G21U G29A G33U it was 0.04; in that of A12C A26U G29A, 0.02; in that of A12C C13U G22A U43A, 0.01. Take A11U C15A A41G: the self-cleavage came out at 0.02. With A12C G21U G40U, the self-cleavage is 0.02. With A11U U32A A41G the figure was 0.01; with A11U A24U A26C G29C, 0.13; with A12C C18U U32C G33A C46A, 0.01. With A11U A16G G17U the figure was 0.02; with A11U G19U G22A C42A, 0.02. Take A12C C15G A41U: the self-cleavage was 0.01.

Take A11U U20G A26U G36C: the self-cleavage was determined as 0.02. With A12C C15A G19C U20A C37A the figure was 0.01; with A11U A24G G29A G35U A41C, 0.02. In the case of A11U A16G G35U C42A it was 0.03; in that of A12C C15A C23A U32C G44A C45U, 0.04. With A12C C18U U43C the figure was 0.04; with A12C C23U G30U, 0.01; with A12C G27A A39U U43A, 0.02. A12C G17U G27A U34C A41G: the self-cleavage came to 0.55.

Regarding A11U C13U U20A A41C U43C, the self-cleavage stood at 0.01. In the case of A11U G19C G21U G30C G36U it was 0.01. In the case of A12C G19U C42G, the self-cleavage came to 0.02. In the case of A11U G27A C37A it was 0.04; in that of A11U A24G G44U C45A, 0.03; in that of A11U G17C C42U, 0.03. Turning to A12C C18A G21A G29U A41C, the self-cleavage was determined as 0.01. Consider A11U C13A C18U, for which the self-cleavage came out at 0.03. In the case of A11U C23G A39C it was 0.05; in that of A11U G17C G22U A26U, 0.05; in that of A11U A39G C42U, 0.04. Turning to A11U A26C G36A, the self-cleavage was 0. With A11U G35A C45G the figure was 0.01.
